Measured values from PubChem BioAssay AID686978 (National Center for Advancing Translational Sciences (NCATS), 2013).
Among all 420,000 compounds or so, about 64,000 (15%) were called active. This list was built around the results that the source calls inconclusive (neither active nor inactive); the mix of calls is not that of the screen. The call rests on the fitted dose curve; in most records, active means well fitted inhibition curve with a large enough effect; inconclusive means small, poorly fitted or top-dose-only effect; inactive means flat fitted curve, though single readings scatter. No potency is given beside an inconclusive call; the fits are too rough.

Assay: qHTS for Inhibitors of human tyrosyl-DNA phosphodiesterase 1 (TDP1): qHTS in cells in absence of CPT; further: nearly all actives have a fitted effect of over 55% in size
Conditions: DT40 Tdp1-/- hTDP1 cells, no CPT, ATP luminescence, 48 h; activity change, negative = growth inhibition: at 46.2 µM (top of the series) unless noted
In short: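 Seeded 400 DT40-hTDP1 cells/well (vehicle DMSO, no 20 nM CPT); pinned compounds; ≥48 hr at 37 °C; CellTiter-Glo luminescence as viability measure.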
On the % scale 0 is the no-effect control and ±100 the full control effect; potency means the concentration at half of the fitted maximal effect; tags describe the fitted curve by direction and shape.

SMILES	Potency	activity change, negative = growth inhibition
CCCn1cc(S(=O)(=O)c2ccccc2)c(=O)c2cc(F)c(N3CCCCC3)cc21	inconclusive [inhibitor, single point]	–
CCOC(=O)c1c(C)cc(C)[nH]c1=O	–	inactive: -0.406%
O=C(Nc1ccc(OC(F)(F)F)cc1)C1CCCN(S(=O)(=O)c2cnc[nH]2)C1 (stereo unspecified)	–	inconclusive: -30.2% [inhibitor]
O=S(=O)(Cc1ccccc1)c1nc2ccccc2n1Cc1ccccn1	–	inactive: -1.39%
CCOC(=O)c1c(C)[nH]c(C(=O)N/N=C/c2ccc(OC)c(OC)c2)c1C	active: 0.92 µM	–
Cc1cc(NC(=O)CCC(=O)N(CC(=O)NC2CCCC2)c2ccc(Cl)c(Cl)c2)no1	–	inconclusive: -33.7% [inhibitor]
CC(C)CN1CCNC(=O)C1CC(=O)NCCc1ccc(C(F)(F)F)cc1 (stereo unspecified)	inconclusive [inhibitor, single point]	–
CCOc1ccccc1NC(=O)c1c(NC(=O)COc2ccccc2)sc2c1CCCCC2	active: 2.06 µM	–
CC(NC(=O)CCCC1=NS(=O)(=O)c2ccccc2N1)c1ccccc1 (stereo unspecified)	inconclusive [inhibitor, single point]	–
O=[N+]([O-])c1ccccc1S(=O)(=O)NCCC1=CCCCC1	active: 20.6 µM	–
CCN(CC(=O)Nc1ccccc1C(F)(F)F)C(=O)CCOc1ccc(C)cc1	inconclusive [inhibitor, partial curve, poor fit]	–
CC(C)(C)c1ccc(NC(=O)CSc2n[nH]c(=O)n2C2CC2)cc1	inconclusive [inhibitor, single point]	–
CC(=O)C(=Nc1ccccc1Cl)NNc1ccc(Cl)cc1	inconclusive [inhibitor, single point]	–
O=C(NCCc1ccccn1)C1CC12CCN(C(=O)c1ccc(F)cc1Cl)CC2 (stereo unspecified)	–	inactive: -10.3%
COCCN(C/C=C/c1ccccc1)C/C=C/c1ccccc1	inconclusive [inhibitor, single point]	–
Cc1cccc(C)c1Nc1cn[nH]c1	–	inactive: -7%
Cc1ccc2c(C)c(C(=O)Nc3cccnc3)oc2c1	inconclusive [inhibitor, partial curve]	–
Cc1cccc(S(=O)(=O)N2CCN(Cc3ccc4c(c3)OCO4)CC2)c1	–	inactive: -22%
Cc1ccc(C)c(-n2nnnc2Sc2nnnn2-c2ccccc2)c1	active: 13 µM	–
CSc1ccc(Cl)c(C(=O)N2CCOc3ccccc32)c1	active: 16.4 µM	–
Cc1ccc2c(c1)-c1c(cnn1CC(=O)N(CCC#N)c1ccccc1)CO2	inconclusive [inhibitor, single point]	–
CC(=O)c1ccc(N2CCN(C(=O)CNC(=O)c3ccc(Br)o3)CC2)cc1	inconclusive [inhibitor, single point]	–
CCN(CC)c1ccc(NC(=O)C2=CCN(S(=O)(=O)c3ccc(F)cc3)CC2)c(C)c1	active: 18.4 µM	–

SMILES	Potency	activity change, negative = growth inhibition
O=C(c1cccc(S(=O)(=O)Nc2ccccc2F)c1)N1CCN(c2ccccc2F)CC1	inconclusive [inhibitor, single point]	–
S=c1[nH]ncn1/N=C/c1ccco1	–	inactive: -4.66%
Cc1cc(C)n(C(=O)/C(C#N)=N/Nc2cc(Cl)cc(Cl)c2)n1	active: 2.59 µM	–
CCNC(=S)N/N=C/c1cc(C)n(-c2ccc(Cl)cc2)c1C	active: 20.6 µM	–
O=C(CN1CCN(C(=O)CCC(=O)N2CCC(c3ccccc3)=N2)CC1)Nc1cccc(F)c1	active: 16.4 µM	–
CCCc1cc(=O)n2nc(N3CCC(C(=O)N4CCN(c5ccc(OC)cc5)CC4)CC3)sc2n1	active: 5.8 µM	–
Cc1ccc(C)c(N2CCN(C(=O)CCc3nc(-c4cccc(F)c4)no3)CC2)c1	inconclusive [inhibitor, single point]	–
CCOC(=O)N1CCN(S(=O)(=O)N2CCCC(C(=O)NCc3ccccc3OCC)C2)CC1 (stereo unspecified)	inconclusive [inhibitor, single point]	–
COc1c(C)cc(S(=O)(=O)N2CCCC2)c(C)c1C	inconclusive [inhibitor, partial curve, poor fit]	–
O=C1Nc2ccccc2Oc2cc([N+](=O)[O-])ccc21	inconclusive [inhibitor, single point]	–
O=C(O)COc1ccccc1C(Nc1ccccn1)c1cc(Cl)c2cccnc2c1O (stereo unspecified)	–	inconclusive: -38.1% [inhibitor]
CC(=O)N=C1C=CC(=CN(O)C(C)(C)Cc2ccccc2)C=C1	–	inactive: -23.7%
O=C1N(Cc2cccc(Cl)c2)C[C@@H]2C[C@@H](c3ccccn3)N3CCC[C@@]123	inconclusive [inhibitor, partial curve, poor fit]	–
Cc1nn(CCCC(=O)Nc2cc(Oc3ccccc3)cc([N+](=O)[O-])c2)c(C)c1[N+](=O)[O-]	inconclusive [inhibitor, single point]	–
COc1ccc(-c2ccc3nnc(SCC(=O)N4CCCC4)n3n2)cc1	–	inactive: -23.9%
O=C(Nc1ccc2c(c1)OCCO2)c1cc(-c2ccccn2)nc2ccc(Br)cc12	inconclusive [inhibitor, full curve, poor fit]	–
COc1ccc(-c2csc(NC(=O)c3cc(-c4cccs4)nc4ccccc34)n2)c(OC)c1	inconclusive [inhibitor, full curve, poor fit]	–
O=C(NCCc1ccccc1)C1CC(=O)N(C2CCCCC2)C1 (stereo unspecified)	–	inactive: 11.5%
CCC(C)n1c(=N)c(C(=O)NCc2ccccc2)cc2c(=O)n3cc(C)ccc3nc21 (stereo unspecified)	active: 16.4 µM	–
COc1ccc(C(c2nnnn2-c2c(C)cccc2C)N2CCN(C/C=C/c3ccccc3)CC2)cc1 (stereo unspecified)	inconclusive [inhibitor, single point]	–
CC1CCCCC1NC(=O)/C(C#N)=C/c1ccccc1F (stereo unspecified)	–	inactive: -100%
c1ccc(-c2nccc(-c3ccc(-n4cnc5ccccc54)cc3)n2)nc1	inconclusive [inhibitor, single point]	–
COc1ccc(S(=O)(=O)N2CCC(C(=O)N3CCCCC3)CC2)cc1OC	inconclusive [inhibitor, single point]	–
